In PubChem BioAssay (Tox21):
“And” between values parts separate entries of the source, which are not always exact repeats. Equal values may be shown once. Inconclusive means that the source gave no clear call. Such entries were picked first, then a sample of the others. For part of these data: A potency beside an inconclusive call is a rough fit, not a confirmed value. The source made the active and inactive calls. Unless noted, calls come from the whole dose curve; as a rule, active = well fitted curve in the direction sought with a large enough effect in the repeat runs; inconclusive = weak or mixed curves; inactive = no such curve, though single readings can be large; an effect the other way counts as inactive or inconclusive.

Legend:
[1] = qHTS assay for small molecule agonists of the p53 signaling pathway (AID 651631; calls by dose curve; note: nearly all actives have a fitted effect of over 15% in size; note: potency is the fitted concentration of half-maximal effect; for activation: % is set by controls: 0 for no effect and ±100 for the full control effect); conditions: HCT-116 p53RE-bla reporter, beta-lactamase FRET ratio, 16 h; activation: at 73.3 µM (top of the series) unless noted
Outline: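 Readout was fluorescence from the LiveBLAzer FRET substrate, applied for 2 h at room temperature after 16 h compound exposure at 37 °C. Cells were the p53RE-bla HCT-116 line, with beta-lactamase driven by p53 response elements.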

[2] = qHTS assay for small molecule disruptors of the mitochondrial membrane potential - cell viability (AID 720634; calls by dose curve; note: potency is the fitted concentration of half-maximal effect; nearly all actives have a fitted effect of over 20% in size)
Outline: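 Viability of HepG2 cells is scored from ATP content by luminescence; cells are exposed to compound for 1 hr at 37 C and 5% CO2, then dosed with m-MPI dye before the CellTiter-Glo reagent.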

[3] = qHTS assay for small molecule disruptors of the mitochondrial membrane potential (AID 720635); conditions: HepG2 mitochondrial membrane potential, Mito-MPS dye ratio; ratio activity, negative = MMP loss: at 83.2 µM (top of the series) unless noted; note: potency is the fitted concentration of half-maximal effect; for ratio activity, negative = MMP loss: % is set by controls: 0 for no effect and ±100 for the full control effect
Outline: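 HepG2 cells (2,000/well) attached overnight at 37C, then took compound for 1 hr at 37C, 5% CO2. Mito-MPS dye was added for 30 min; fluorescence was read at 490/535 nm (monomers) and 540/590 nm (aggregates).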

[4] = target: Glucocorticoid receptor (Homo sapiens) (UniProt P04150); assay: qHTS assay to identify small molecule agonists of the glucocorticoid receptor (GR) signaling pathway (AID 720691; active = well fitted activation curve with a large enough effect in the signal ratio in the repeat runs, not every such curve was filed as active; inconclusive = weak or mixed curves, or effect the other way; inactive = no such curve, though single readings can be large or run the other way; the % refers to the signal ratio; note: potency is the fitted concentration of half-maximal effect; for activation: % is set by controls: 0 for no effect and ±100 for the full control effect); conditions: GR-bla HeLa, beta-lactamase reporter ratio, 18 h; activation: at 62.4 µM (top of the series) unless noted
Outline: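 Compounds in DMSO, alongside positive controls, were added to GR-bla HeLa reporter cells and incubated 18 h at 37 C; GRE-driven beta-lactamase was detected by fluorescence after 2 h with FRET substrate at room temperature.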

[5] = target: Glucocorticoid receptor (Homo sapiens) (UniProt P04150); assay: qHTS assay to identify small molecule antagonists of the glucocorticoid receptor (GR) signaling pathway (AID 720692; active = well fitted inhibition curve with a large enough effect in the signal ratio in the repeat runs, not every such curve was filed as active; inconclusive = weak or mixed curves, or effect the other way; inactive = no such curve, though single readings can be large or run the other way; the % refers to the signal ratio; note: potency is the fitted concentration of half-maximal effect); conditions: GR-bla HeLa, beta-lactamase FRET ratio, dexamethasone-stimulated, 18 h; activity change, negative = inhibition: at 58.5 µM (top of the series) unless noted
Outline: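 In a 1536-well cell format, compounds were added 4 h after seeding GR-bla HeLa cells, together with dexamethasone at 5 nM final; reporter activity was measured by FRET-substrate fluorescence following 18 h at 37 C.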

[6] = qHTS assay to identify small molecule antagonists of the glucocorticoid receptor (GR) signaling pathway - cell viability counter screen (AID 720693); conditions: GR-bla HeLa viability, CellTiter-Glo luminescence, 18 h, with 5 nM dexamethasone present; viability change, negative = cytotoxic: at 58.5 µM (top of the series) unless noted; note: potency is the fitted concentration of half-maximal effect; nearly all actives have a fitted effect of over 55% in size
[7] = qHTS assay to identify small molecule antagonists of the androgen receptor (AR) signaling pathway - cell viability counter screen (AID 743033; note: nearly all actives have a fitted effect of over 45% in size; note: potency is the fitted concentration of half-maximal effect); conditions: AR-bla HEK293 viability, CellTiter-Glo luminescence, 16 h; activity change, negative = cytotoxicity: at 58.5 µM (top of the series)
[8] = qHTS assay for identifying genotoxic compounds that show differential cytotoxicity against isogenic chicken DT40 cell lines with known DNA damage response pathways - wild type cell line (AID 743012); conditions: DT40 wild type chicken cells viability, CellTiter-Glo, 40 h; activity change, negative = cytotoxicity: at 68.4 µM (top of the series) unless noted; note: nearly all actives have a fitted effect of over 60% in size; note: potency is the fitted concentration of half-maximal effect
Outline: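 Viability of DNA repair-proficient chicken DT40 cells was assessed by CellTiter-Glo luminescence following 40 h compound exposure at 37 C/5% CO2.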

[9] = qHTS assay for identifying genotoxic compounds that show differential cytotoxicity against isogenic chicken DT40 cell lines with known DNA damage response pathways - Rad54/Ku70 mutant cell line (AID 743015); conditions: DT40 Rad54/Ku70 mutant viability, CellTiter-Glo, 40 h; activity change, negative = cytotoxicity: at 66.8 µM (top of the series); note: nearly all actives have a fitted effect of over 60% in size; note: potency is the fitted concentration of half-maximal effect
[10] = qHTS assay to test for compound auto fluorescence at 460 nm (blue) in HepG2 cell free culture (AID 720685); note: % is set by controls: 0 for no effect and ±100 for the full control effect
Outline: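 Cell-free plates of MEM plus 10% FBS received 23 nL compound or DMSO vehicle; blue-channel (405/460 nm) intensity scored against triamterene as reference fluorophore.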

[11] = qHTS assay for identifying genotoxic compounds that show differential cytotoxicity against isogenic chicken DT40 cell lines with known DNA damage response pathways - Rev3 mutant cell line (AID 743014); conditions: chicken DT40 Rev3-/- viability, CellTiter-Glo, 40 h; activity, negative = cytotoxicity: at 68.4 µM (top of the series); note: potency is the fitted concentration of half-maximal effect; nearly all actives have a fitted effect of over 55% in size
Tags give direction and shape of the fitted curve or compound fluorescence and quenching.

Chain of UniProt P04150 (P04150 whole entry, looked up): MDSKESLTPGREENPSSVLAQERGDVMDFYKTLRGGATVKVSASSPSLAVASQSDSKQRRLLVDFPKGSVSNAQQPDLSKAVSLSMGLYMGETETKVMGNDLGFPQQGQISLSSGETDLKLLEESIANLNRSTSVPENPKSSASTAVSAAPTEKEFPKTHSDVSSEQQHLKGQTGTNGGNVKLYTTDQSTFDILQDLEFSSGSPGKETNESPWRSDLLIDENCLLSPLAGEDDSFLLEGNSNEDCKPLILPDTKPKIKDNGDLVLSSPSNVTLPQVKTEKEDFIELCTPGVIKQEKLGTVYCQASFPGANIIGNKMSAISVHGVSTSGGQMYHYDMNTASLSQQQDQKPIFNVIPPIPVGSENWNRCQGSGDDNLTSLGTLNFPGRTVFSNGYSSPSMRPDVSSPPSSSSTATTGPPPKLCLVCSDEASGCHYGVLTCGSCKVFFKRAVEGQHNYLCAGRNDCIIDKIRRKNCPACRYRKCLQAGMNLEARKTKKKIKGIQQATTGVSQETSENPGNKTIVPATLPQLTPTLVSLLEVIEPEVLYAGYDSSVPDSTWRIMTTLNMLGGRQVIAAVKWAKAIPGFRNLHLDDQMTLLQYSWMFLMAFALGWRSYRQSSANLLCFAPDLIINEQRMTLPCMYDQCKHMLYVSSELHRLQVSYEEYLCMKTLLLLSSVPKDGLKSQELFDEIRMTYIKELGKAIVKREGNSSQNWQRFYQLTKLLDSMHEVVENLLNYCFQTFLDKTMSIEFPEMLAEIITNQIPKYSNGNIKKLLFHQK

CC1(C)CN=C(NN=C(/C=C/c2ccc(C(F)(F)F)cc2)/C=C/c2ccc(C(F)(F)F)cc2)NC1
Potency [1]: inconclusive: 19.3 µM [cytotoxic, full curve]
Potency [2]: inconclusive: 27.3 µM [cytotoxic, partial curve]
Potency [3]: active: 17.2 µM
Potency [4]: inconclusive: 8.71 µM [cytotoxic, full curve]
Potency [5]: inconclusive: 19.5 µM [cytotoxic, full curve]
Potency [6]: active: 24.5 µM
Potency [7]: active: 21.9 µM

O=c1[nH]c2ccccc2n1C1CCN(CCCC(c2ccc(F)cc2)c2ccc(F)cc2)CC1
Potency [1]: inconclusive: 21.1 µM [cytotoxic, partial curve] and inconclusive: 54.5 µM [cytotoxic, partial curve]
Potency [2]: inconclusive: 33.5 µM [cytotoxic, single point] and inconclusive: 68.6 µM [cytotoxic]
Potency [3]: inconclusive: 15 µM [cytotoxic, partial curve, poor fit] and inconclusive: 48.6 µM [cytotoxic, partial curve, poor fit]
Potency [6]: inconclusive: 26.8 µM [cytotoxic, single point]

BrCC(Br)(Br)Br
Potency [1]: active: 7.11 µM
ratio activity, negative = MMP loss [3]: inconclusive: -12.6% [at 95.3 µM]

CCCCCCCCCCCCCCCl
Potency [1]: inactive
Potency [3]: inactive

CCOP(=S)(OCC)Oc1nc(Cl)c(Cl)cc1Cl
Potency [1]: inconclusive: 54.6 µM [falling, partial curve]
Potency [2]: active: 6.87 µM and inconclusive: 34.4 µM [cytotoxic, partial curve, poor fit]
Potency [4]: inactive
Potency [8]: inconclusive: 54.5 µM [cytotoxic]
activity change, negative = cytotoxicity [8]: inconclusive: 45.5%
Potency [9]: inactive and inconclusive: 43.3 µM [cytotoxic, partial curve]
Potency [7]: inactive

CCCCCCC[CH2][Sn]([Cl])([Cl])[CH2]CCCCCCC
Potency [1]: inconclusive: 5.44 µM [cytotoxic, full curve]
Potency [3]: active: 48.5 µM
Potency [10]: inactive
Potency [4]: inconclusive: 54.9 µM [cytotoxic, single point]
Potency [6]: active: 54.9 µM
Potency [9]: inactive

O=S1(=O)OC(c2cc(Br)c(O)c(Br)c2)(c2cc(Br)c(O)c(Br)c2)c2ccccc21
Potency [1]: inactive
Potency [2]: active: 28.1 µM
Potency [3]: inconclusive: 14.1 µM
Potency [6]: inconclusive: 10 µM [cytotoxic, full curve]
Potency [8]: active: 31.5 µM
Potency [11]: active: 28.1 µM
Potency [9]: active: 25 µM

C=CC(N)=O
Potency [1]: inconclusive: 0.613 µM [activator, single point]
Potency [3]: inactive

CC(=O)c1cc(C(C)(C)C)cc2c1CCC2(C)C
Potency [1]: inconclusive: 48.6 µM [falling, partial curve]
Potency [2]: inconclusive: 54.5 µM [cytotoxic]
Potency [3]: active: 30.6 µM
Potency [5]: inconclusive: 61.6 µM [cytotoxic]
Potency [9]: inconclusive: 3.06 µM [rising, single point]
Potency [7]: inactive

CC(=O)C(Cl)Cl
Potency [1]: inconclusive: 27.8 µM [activator, single point]
ratio activity, negative = MMP loss [3]: inconclusive: 0.554% [at 95.3 µM]

O=c1oc2ccccc2c(O)c1C(CC(O)c1ccc(-c2ccc(Br)cc2)cc1)c1ccccc1 (stereo not drawn)
Potency [1]: active: 21.1 µM and active: 46 µM
Potency [2]: active: 6.68 µM and inconclusive: 36.5 µM [cytotoxic, partial curve, poor fit]
Potency [5]: inconclusive: 26.8 µM [cytotoxic, single point] and inconclusive: 58.3 µM [cytotoxic, single point]
Potency [6]: active: 23.9 µM and active: 46.3 µM
Potency [9]: inconclusive: 33.5 µM [cytotoxic, single point] and inconclusive: 51.6 µM [cytotoxic, single point]
Potency [7]: inconclusive: 36.8 µM [cytotoxic, partial curve, poor fit]

O=[N+]([O-])c1cc([N+](=O)[O-])c2ccccc2c1
Potency [1]: inconclusive: 27.3 µM [activator]
Potency [2]: inconclusive: 68.6 µM [cytotoxic, partial curve, poor fit]
Potency [3]: active: 10.9 µM
Potency [5]: inconclusive: 1.23 µM [inhibitor, full curve]
Potency [8]: active: 6.11 µM
Potency [9]: active: 7.52 µM

CC(C)(O)c1cnn2c(-c3ccc(F)c(-c4c(F)cccc4C#N)c3)cnc2n1
Potency [1]: inconclusive: 61.1 µM [rising, partial curve]
Potency [2]: inconclusive: 54.5 µM [cytotoxic, partial curve, poor fit]
Potency [3]: active: 19.3 µM
Potency [4]: inconclusive: 43.6 µM [fluorescent]
Potency [5]: inconclusive: 54.9 µM
Potency [7]: inactive
